According to PubChem BioAssay AID651820 (National Center for Advancing Translational Sciences (NCATS), 2012):
Screen size: about 340,000 compounds; about 12,000 (3.5%) were called active. The shares of active, inactive and inconclusive entries below differ from those in the screen. Calls follow the shape of the dose curve; as a rule, active = well fitted inhibition curve with a large enough effect; inconclusive = small, poorly fitted or top-dose-only effect, or another doubt; inactive = no such curve, though single readings can be large or run the other way. No potency is given beside an inconclusive call; the fits are too rough.
% is scaled to controls: 0 for no effect and ±100 for the full control effect; potency is read from the fitted curve at half-maximal effect; tags tell the direction and shape of the fitted curve.

Experiment: qHTS Assay for Inhibitors of Hepatitis C Virus (HCV)
Conditions: Huh7.5.1 HCVcc-Cre (HCVcc is cell-culture hepatitis C virus) infection, luciferase reporter, 44 h; activity change, negative = inhibition: at 41.8 µM (top of the series) unless noted
Summary of the method: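 Infectious HCVcc-Cre (~0.5 moi) was added to cells just after compound, with cells seeded 4 h earlier at 1,000 per well. Luciferase activity after 44 h culture reported infection; substrate was incubated 15 min at room temperature before reading.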
For `NS(=O)(=O)c1ccc(CCNC(=O)c2ccc(S(=O)(=O)N3CCCCC3)cc2)cc1`, the “activity change, negative = inhibition” value was inactive: 6.45%.
For `COCCNC(=O)CN1CCCCCC1`, the Potency was inconclusive [inhibitor, single point].
In the case of `CC(C)NC(=O)c1ccc(CN2CCC(Cc3ccccc3)CC2)cc1`, the Potency is reported as inconclusive [inhibitor, partial curve].
In the case of `O=S1(=O)CCN2C(c3ccc4c(c3)CCCC4)=CSC2=N1`, the “activity change, negative = inhibition” value is reported as inactive: 13.2%.
In the case of `COc1ccc(N2C(=O)CN(Cc3cc(OC)c(OC)c(OC)c3)C2=S)cc1`, the Potency is reported as inconclusive [inhibitor, partial curve].
With `O=C(Nc1ccc(S(=O)(=O)N2CCOCC2)cc1)c1cc(-c2ccccc2O)n[nH]1` the “activity change, negative = inhibition” value was inactive: -18%.
In the case of `Cc1ccc(-c2cc(C(=O)NCc3cnn(C)c3C)c3cc(Br)ccc3n2)cc1`, the Potency is reported as inconclusive [inhibitor, partial curve].
With `O=[N+]([O-])c1cc2c(cc1/C=N\NS(=O)(=O)c1ccccc1)OCO2` the “activity change, negative = inhibition” value was inactive: 7.66%.
In the case of `Cc1ccc(NC(=O)c2cc(C(C)(C)C)nn2Cc2ccccc2)cc1`, the Potency is reported as inconclusive [inhibitor, single point].
In the case of `Cc1ccc(NC(=O)COc2ccc3c(c2)OCO3)c(C)c1`, the “activity change, negative = inhibition” value is reported as inactive: 6.48%.
For `Cc1nc(SCC(=O)NC(C)(C#N)C2CC2)c2c(-c3cccs3)csc2n1` (centres undefined), the Potency was active: 10 µM.
For `CN(C)/C=C/C(=O)c1ccc([N+](=O)[O-])c(CS(=O)(=O)c2ccccc2)c1`, the “activity change, negative = inhibition” value was inactive: 0.683%.
For `O=c1[nH]c2ccc(NC(=S)Nc3ccc(Cl)cc3)cc2[nH]1`, the “activity change, negative = inhibition” value was inactive: -7.88%.
In the case of `N#CCc1ccc(NC(=O)/C=C/c2ccc([N+](=O)[O-])o2)cc1`, the Potency is reported as inconclusive [inhibitor, single point].
For `Cc1c(C(C)C)c(=O)n(-c2ccc(S(=O)(=O)NC(C)C)cc2)n1C`, the Potency was inconclusive [inhibitor, single point].
In the case of `O=C(Nc1cc2c(cc1Br)OCCCO2)c1cccnc1`, the “activity change, negative = inhibition” value is reported as inactive: 18.7%.
With `Cc1ccc(-c2cc(C(=O)Nc3ccc(S(=O)(=O)Nc4ncccn4)cc3)[nH]n2)c(O)c1C` the “activity change, negative = inhibition” value was inactive: -6.41%.
With `Clc1ccc(Cn2ncc3c(N4CCCCC4)ncnc32)cc1` the Potency was inconclusive [inhibitor, partial curve].
For `CS(=O)(=O)c1ccc(CNC(=O)C2(C(F)(F)F)CC(CCCO)CCCO2)cc1` (centres undefined), the Potency was inconclusive [inhibitor, single point].
In the case of `CCN(Cc1ccccc1)S(=O)(=O)c1ccc(C(=O)N(CCCN(C)C)c2nc3cc4c(cc3s2)OCCO4)cc1`, the Potency is reported as active: 11.2 µM.
With `N#Cc1cc(-c2ccccc2)oc1NC(=O)c1ccco1` the Potency was inconclusive [inhibitor, single point].
In the case of `O=C(Nc1cccc(Cl)c1)Nc1ccccc1C(=O)NCc1ccco1`, the Potency is reported as inconclusive [inhibitor, single point].
For `CN1/C(=C\C=N\NC(=O)c2ccc(O)cc2)C(C)(C)c2ccccc21`, the Potency was inconclusive [inhibitor, single point].
With `CCN1CCCC1CNC(=O)CSc1cc(=O)n(C)c2cc(Cl)ccc12` (centres undefined) the Potency was inconclusive [inhibitor, single point].
In the case of `CN1C(=O)C2ON(c3ccccc3)C(c3cccs3)C2C1=O` (centres undefined), the Potency is reported as “inactive”.
With `C=C1CC[C@@H]2[C@](C)(CO)[C@H](O)CC[C@@]2(C)[C@@H]1/C=C/C1=CCOC1=O` the Potency was inconclusive [inhibitor, single point].
For `Cc1nc2c(-c3ccc(F)cc3)cnn2c(N)c1-c1ccccc1`, the Potency was active: 14.1 µM.
For `CN(C(=O)COC(=O)c1ccc2ccccc2n1)c1ccccc1`, the “activity change, negative = inhibition” value was inactive: 9.61%.
For `COc1cc(C(=O)N[C@H](C(=O)NC2CCCCCC2)C(C)C)cc(OC)c1OC`, the “activity change, negative = inhibition” value was inactive: 12.4%.
For `COc1ccc(C(C)=O)cc1CSc1nc2ccccc2c(=O)n1-c1cccc(C)c1`, the Potency was inconclusive [inhibitor, single point].
In the case of `CC1=C(CC(=O)c2ccc(Cl)cc2)C(=O)c2ccccc2C1=O`, the Potency is reported as active: 4.47 µM.
For `O=C(NCCc1ccccc1)C1CC(=O)N(c2ccc3c(c2)OCCO3)C1` (centres undefined), the Potency was inconclusive [inhibitor, single point].
For `CCOC(=O)c1ccccc1NC(=O)CSc1nnc(COc2ccccc2C)n1C`, the Potency was inconclusive [inhibitor, single point].
For `Cc1nc2c(-c3ccc(Cl)cc3)c(C)[nH]n2c(=O)c1Cc1ccccc1`, the Potency was inconclusive [inhibitor, single point].
With `O=C(N/N=C/c1ccncc1)c1cc2ccccc2o1` the “activity change, negative = inhibition” value was inactive: 1.47%.
With `Cc1nn(C)c(C)c1CN(C)C(=O)c1cnn2c1NC(c1ccccc1)CC2C(F)(F)F` (centres undefined) the “activity change, negative = inhibition” value was inactive: -9.9%.
For `CCOC(=O)CSC1=C(C#N)C(c2ccc3c(c2)OCO3)CC(=O)N1` (centres undefined), the Potency was inconclusive [inhibitor, partial curve].
For `O=C(NNc1ncccc1Cl)c1c(Cl)cccc1Cl`, the “activity change, negative = inhibition” value was inactive: 16.2%.
With `COc1ccc(NS(=O)(=O)c2cccc(NC(=O)c3cnccn3)c2)cc1Br` the Potency was inconclusive [inhibitor, partial curve].
For `C/C(=N\Nc1cc(C)nc(NCc2ccccc2)n1)c1cccc([N+](=O)[O-])c1`, the Potency was active: 2 µM.
For `C[C@H](CO)N1C[C@H](C)[C@H](CN(C)C)Oc2ccc(NS(=O)(=O)c3ccc(F)cc3)cc2CC1=O`, the “activity change, negative = inhibition” value was inactive: 10.6%.
With `COc1cc(C(=O)Nc2nc(-c3cccs3)cs2)cc(OC)c1OC` the Potency was active: 1.78 µM.
For `CCCCOC(=O)Cn1c(=O)c2c(nc(Br)n2Cc2ccccc2)n(C)c1=O`, the Potency was inconclusive [inhibitor, single point].
For `CCOc1ccc(C(=O)Nc2ccc(S(=O)(=O)N3C[C@@H]4C[C@@H](C3)c3cccc(=O)n3C4)cc2)cc1`, the Potency was active: 1 µM.
With `Nc1ccc(C(=O)CC(=O)Nc2ccc(Cl)cc2)cc1` the “activity change, negative = inhibition” value was inactive: 9.77%.
With `N#Cc1c(NC(=O)c2cccc(S(=O)(=O)Nc3ccc(C(=O)O)cc3)c2)sc2c1CCCC2` the “activity change, negative = inhibition” value was inactive: 18.2%.
In the case of `COc1ccccc1NS(=O)(=O)c1cc(NC(=O)c2cc(F)c(F)c(F)c2F)ccc1N1CCOCC1`, the Potency is reported as inconclusive [inhibitor, partial curve].
In the case of `COCCN(C(=O)COC(=O)c1cc2ccccc2cc1OC)c1c(N)n(Cc2ccccc2)c(=O)[nH]c1=O`, the Potency is reported as inconclusive [inhibitor, full curve, poor fit].
For `COc1ccc2cnnc(SCC(=O)Nc3ccccc3)c2c1OC`, the Potency was inconclusive [inhibitor, single point].
With `O=C(Nc1nnc(-c2ccc(F)cc2)s1)Nc1ccccc1F` the “activity change, negative = inhibition” value was inactive: 6.27%.
With `COc1ccc(NC(=O)C2C3CCC4C(CCC32)C4(Cl)Cl)cc1` (centres undefined) the “activity change, negative = inhibition” value was inactive: 34.9%.
With `CC(=O)c1ccc(-c2ccc(C(=O)NC3CCCCCC3)o2)cc1` the “activity change, negative = inhibition” value was inactive: 9.69%.
With `CCC1CCCCN1CCCCOc1cccc(Cl)c1` (centres undefined) the Potency was inconclusive [inhibitor, single point].
With `O=C(CSc1ccccn1)Nc1nc2c(ccc3ccccc32)s1` the Potency was inconclusive [inhibitor, single point].
For `COC(=O)C(O)(NC(=O)OCc1ccccc1)C(F)(F)F` (centres undefined), the Potency was inconclusive [inhibitor, single point].
With `COc1ccc(C2CC(c3cccs3)=NN2C(=O)c2ccc(Br)o2)cc1` (centres undefined) the Potency was active: 10 µM.
In the case of `Cc1ccc(C(=O)Nc2sc3c(c2C(=O)O)CCCC3)o1`, the Potency is reported as inconclusive [inhibitor, single point].
In the case of `Cn1c(=O)c2c(nc(CN3CCN(C(=O)c4ccco4)CC3)n2Cc2ccccc2)n(C)c1=O`, the “activity change, negative = inhibition” value is reported as inactive: 5.65%.
In the case of `COc1cccc(NC(=O)CSc2nc3ccccc3cc2Cc2ccccc2)c1`, the “activity change, negative = inhibition” value is reported as inactive: -10.6%.
In the case of `Cn1c(N)c(C(=O)COC(=O)c2ccc(Cl)c(S(=O)(=O)N3CCCCC3)c2)c(=O)n(C)c1=O`, the Potency is reported as inconclusive [inhibitor, full curve, poor fit].
With `Cn1c(SCC(=O)N2c3ccccc3CCc3ccccc32)nnc1-c1cc2ccccc2cc1O` the Potency was inconclusive [inhibitor, single point].
For `COc1ccccc1NS(=O)(=O)c1ccc(C)c(C(=O)NCc2cccnc2)c1`, the “activity change, negative = inhibition” value was inactive: 3.55%.
In the case of `Cc1c(C(=S)NC(=O)C2CC2)c(=O)n(-c2ccccc2)n1C`, the “activity change, negative = inhibition” value is reported as inactive: -8.52%.
With `CCOC(=O)c1c(S(=O)(=O)NCC(=O)Nc2ccccc2OC)c(C)n(C)c1C` the “activity change, negative = inhibition” value was inactive: 12.1%.
In the case of `Cc1cc(CCNC=O)c(C)c2c1sc1ccccc12`, the Potency is reported as inconclusive [inhibitor, full curve, poor fit].
With `O=S(=O)(Cc1cc(Sc2ccccc2)nc(-c2ccccc2)n1)c1ccccc1` the Potency was inconclusive [inhibitor, single point].
For `CCc1ccc(CN(C)C(=O)C2=CC=CN3CCS(=O)(=O)N=C23)cc1`, the Potency was inconclusive [inhibitor, single point].
In the case of `O=C(Cc1ccccc1[N+](=O)[O-])Nc1ccc2c(c1)OCO2`, the “activity change, negative = inhibition” value is reported as inactive: -0.387%.
With `COc1cccc(N2CCN(C(=O)c3ccc(CSc4nc5ccncc5[nH]4)cc3)CC2)c1` the Potency was inconclusive [inhibitor, single point].
For `CC1(C)Cc2c(sc3c2C(=O)N(c2ccccc2)C2=NCCCN23)CO1`, the Potency was inconclusive [inhibitor, single point].
In the case of `CNc1nc(N)nc(-c2cc(Cl)ccc2OC)n1`, the “activity change, negative = inhibition” value is reported as inactive: 17%.
With `O=C(O)c1cc(-c2ccccc2)n(-c2ccccc2C(=O)O)n1` the “activity change, negative = inhibition” value was inactive: 14.2%.
With `Cc1cccc(-c2nnc(-c3ccccc3)o2)c1` the Potency was inconclusive [inhibitor, single point].
For `CC1=C(C)C(=O)C(CCCCC#CCCCC#CCO)=C(C)C1=O`, the activity change, negative = inhibition was inactive: 0.564% [at 8.37 µM].
